Results are given in words; binding and its absence hold for the method and conditions named. For part of these data: Binding seen in cells or lysates may run through a third protein. Some entries that bind do so weakly or less than the wild type. For part of these data: Where a sequence is shown, tags or fusion partners need not be part of it.
Columns and labels:
[1] = target: T1, AtSPO11-2 (BiFC fusion) (Arabidopsis thaliana) (UniProt Q9M4A1); test: split reporter; BiFC, pSPYNE-35S and pSPYCE-35S, onion epidermal cells, gene gun; confocal microscopy 16–24 h after transformation
T1 sequence: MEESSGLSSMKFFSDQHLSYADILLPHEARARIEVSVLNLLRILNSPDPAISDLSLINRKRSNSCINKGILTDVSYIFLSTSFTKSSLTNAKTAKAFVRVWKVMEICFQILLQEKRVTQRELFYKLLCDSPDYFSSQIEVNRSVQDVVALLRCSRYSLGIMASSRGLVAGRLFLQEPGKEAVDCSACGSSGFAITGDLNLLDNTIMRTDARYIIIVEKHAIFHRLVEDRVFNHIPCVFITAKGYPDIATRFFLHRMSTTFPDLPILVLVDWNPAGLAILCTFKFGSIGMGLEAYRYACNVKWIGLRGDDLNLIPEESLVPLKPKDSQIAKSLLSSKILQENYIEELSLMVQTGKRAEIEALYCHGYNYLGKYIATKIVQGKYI

[2] = target: T2, AtDFO (BiFC fusion) (Arabidopsis thaliana) (UniProt Q8RX33); test: as above
T2 sequence: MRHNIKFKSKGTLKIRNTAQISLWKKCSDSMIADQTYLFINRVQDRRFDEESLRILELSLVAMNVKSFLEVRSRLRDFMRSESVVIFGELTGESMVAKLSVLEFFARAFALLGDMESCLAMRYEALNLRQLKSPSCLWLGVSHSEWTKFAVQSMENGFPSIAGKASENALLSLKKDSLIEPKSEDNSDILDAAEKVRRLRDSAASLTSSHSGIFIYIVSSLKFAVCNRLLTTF

[3] = target: T3, AtPRD3 (BiFC fusion) (Arabidopsis thaliana) (UniProt Q0WWX5); test: as above
T3 sequence: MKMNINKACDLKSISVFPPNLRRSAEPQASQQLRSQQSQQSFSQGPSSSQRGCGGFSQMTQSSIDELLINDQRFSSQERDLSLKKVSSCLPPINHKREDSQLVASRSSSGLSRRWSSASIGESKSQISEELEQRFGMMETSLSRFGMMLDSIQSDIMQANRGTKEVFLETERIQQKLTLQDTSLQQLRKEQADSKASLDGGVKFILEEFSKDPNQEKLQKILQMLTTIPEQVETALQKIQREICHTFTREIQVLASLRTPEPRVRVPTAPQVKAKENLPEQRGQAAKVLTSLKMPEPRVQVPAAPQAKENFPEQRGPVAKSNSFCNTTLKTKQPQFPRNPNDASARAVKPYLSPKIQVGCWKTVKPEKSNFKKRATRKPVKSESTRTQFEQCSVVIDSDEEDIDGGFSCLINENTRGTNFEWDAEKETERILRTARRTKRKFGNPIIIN

[4] = target: T4, AtSPO11-1 (BiFC fusion) (Arabidopsis thaliana) (UniProt Q9M4A2); test: as above
T4 sequence: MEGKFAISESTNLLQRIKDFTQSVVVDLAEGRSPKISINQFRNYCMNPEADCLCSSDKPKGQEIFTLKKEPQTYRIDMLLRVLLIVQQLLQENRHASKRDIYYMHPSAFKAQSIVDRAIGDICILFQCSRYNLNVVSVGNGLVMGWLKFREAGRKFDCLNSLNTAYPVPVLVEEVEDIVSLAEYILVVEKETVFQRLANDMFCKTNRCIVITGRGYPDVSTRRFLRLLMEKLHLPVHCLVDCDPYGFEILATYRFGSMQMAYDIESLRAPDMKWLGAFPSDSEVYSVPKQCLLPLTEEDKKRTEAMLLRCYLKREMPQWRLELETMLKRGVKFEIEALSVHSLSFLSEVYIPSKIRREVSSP

[5] = target: T5, AtDFO (Arabidopsis thaliana) (UniProt Q8RX33); test: two-hybrid; Gal4 vector system (Clontech), pGBKT7 and pGADT7, yeast AH109; growth on SD/-Trp-Leu-His-Ade plates, 3 to 7 days, 30 °C; cells serially diluted
T5 sequence: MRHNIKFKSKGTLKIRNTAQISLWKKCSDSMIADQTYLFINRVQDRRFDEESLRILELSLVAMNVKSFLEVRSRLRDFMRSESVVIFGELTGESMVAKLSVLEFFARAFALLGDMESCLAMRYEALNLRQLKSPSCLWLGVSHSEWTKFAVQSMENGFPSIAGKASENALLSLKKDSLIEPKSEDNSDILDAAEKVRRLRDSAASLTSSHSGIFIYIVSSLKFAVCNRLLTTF

[6] = target: T6, full length AtPRD1 (1–1330 aa) (Arabidopsis thaliana) (UniProt O23277); test: as above
T6 sequence: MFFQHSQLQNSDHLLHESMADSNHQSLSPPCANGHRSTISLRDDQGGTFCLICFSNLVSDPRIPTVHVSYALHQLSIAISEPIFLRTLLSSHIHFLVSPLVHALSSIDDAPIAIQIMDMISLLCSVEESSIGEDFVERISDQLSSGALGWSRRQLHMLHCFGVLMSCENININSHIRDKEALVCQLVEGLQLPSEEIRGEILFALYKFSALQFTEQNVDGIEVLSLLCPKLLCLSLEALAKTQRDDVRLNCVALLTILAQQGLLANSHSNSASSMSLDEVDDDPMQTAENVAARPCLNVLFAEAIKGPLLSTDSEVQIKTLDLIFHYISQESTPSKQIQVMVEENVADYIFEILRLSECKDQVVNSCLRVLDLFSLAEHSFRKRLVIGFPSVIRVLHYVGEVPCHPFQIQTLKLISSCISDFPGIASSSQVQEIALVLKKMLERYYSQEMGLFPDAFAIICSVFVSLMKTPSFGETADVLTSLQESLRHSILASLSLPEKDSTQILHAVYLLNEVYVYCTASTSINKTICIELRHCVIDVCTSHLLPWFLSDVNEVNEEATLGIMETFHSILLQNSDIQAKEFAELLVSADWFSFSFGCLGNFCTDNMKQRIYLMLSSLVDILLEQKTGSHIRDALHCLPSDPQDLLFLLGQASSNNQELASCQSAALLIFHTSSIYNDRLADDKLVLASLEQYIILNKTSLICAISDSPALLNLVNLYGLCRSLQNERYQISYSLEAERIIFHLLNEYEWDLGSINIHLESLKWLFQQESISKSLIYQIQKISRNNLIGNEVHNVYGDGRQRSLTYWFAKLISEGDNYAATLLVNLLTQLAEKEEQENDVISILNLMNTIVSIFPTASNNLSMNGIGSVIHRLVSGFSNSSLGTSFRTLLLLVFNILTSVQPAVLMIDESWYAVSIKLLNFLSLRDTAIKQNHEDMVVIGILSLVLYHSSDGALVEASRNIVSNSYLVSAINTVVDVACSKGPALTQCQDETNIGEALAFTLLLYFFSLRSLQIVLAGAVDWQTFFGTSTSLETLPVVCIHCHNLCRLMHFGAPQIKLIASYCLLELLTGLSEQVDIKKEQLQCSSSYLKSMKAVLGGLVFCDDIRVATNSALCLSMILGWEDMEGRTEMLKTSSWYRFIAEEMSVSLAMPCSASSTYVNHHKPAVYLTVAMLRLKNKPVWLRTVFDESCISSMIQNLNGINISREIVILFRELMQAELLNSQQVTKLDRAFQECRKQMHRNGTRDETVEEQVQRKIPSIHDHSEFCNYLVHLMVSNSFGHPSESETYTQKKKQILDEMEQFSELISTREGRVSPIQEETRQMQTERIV

[7] = target: T7, AtSPO11-1 (Arabidopsis thaliana) (UniProt Q9M4A2); test: as above
T7 sequence: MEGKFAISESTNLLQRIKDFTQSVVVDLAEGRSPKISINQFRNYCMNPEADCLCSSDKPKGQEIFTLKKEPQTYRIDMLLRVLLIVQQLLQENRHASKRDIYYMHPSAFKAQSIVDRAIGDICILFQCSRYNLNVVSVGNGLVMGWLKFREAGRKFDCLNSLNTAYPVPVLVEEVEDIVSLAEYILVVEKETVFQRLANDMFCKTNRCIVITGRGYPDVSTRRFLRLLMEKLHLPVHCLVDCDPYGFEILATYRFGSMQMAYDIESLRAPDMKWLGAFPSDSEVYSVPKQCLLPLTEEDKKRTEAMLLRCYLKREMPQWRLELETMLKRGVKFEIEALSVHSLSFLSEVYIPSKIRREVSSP

[8] = target: T8, AtPRD3 (Arabidopsis thaliana) (UniProt Q0WWX5); test: as above
T8 sequence: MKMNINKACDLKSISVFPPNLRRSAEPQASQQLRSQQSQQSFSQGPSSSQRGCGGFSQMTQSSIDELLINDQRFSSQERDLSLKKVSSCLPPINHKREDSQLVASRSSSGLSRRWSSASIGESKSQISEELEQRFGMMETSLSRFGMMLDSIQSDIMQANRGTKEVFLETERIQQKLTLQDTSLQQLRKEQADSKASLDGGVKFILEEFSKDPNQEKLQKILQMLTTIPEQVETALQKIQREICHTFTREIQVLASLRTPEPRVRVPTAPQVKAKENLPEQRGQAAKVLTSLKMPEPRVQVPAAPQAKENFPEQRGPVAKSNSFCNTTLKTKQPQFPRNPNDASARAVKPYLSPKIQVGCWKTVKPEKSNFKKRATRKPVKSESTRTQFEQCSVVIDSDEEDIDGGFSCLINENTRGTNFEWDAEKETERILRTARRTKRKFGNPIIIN

[9] = target: T9, AtSPO11-2 (170-383 aa) (Arabidopsis thaliana) (UniProt Q9M4A1); test: as above
T9 sequence: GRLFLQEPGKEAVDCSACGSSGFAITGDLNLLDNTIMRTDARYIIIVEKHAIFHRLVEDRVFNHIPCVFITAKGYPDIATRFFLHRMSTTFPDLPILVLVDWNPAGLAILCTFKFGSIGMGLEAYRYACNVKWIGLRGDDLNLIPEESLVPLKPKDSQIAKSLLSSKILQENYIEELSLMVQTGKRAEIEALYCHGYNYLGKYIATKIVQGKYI

Measured: binding

B1: AtPRD1-A (1–388 aa) (BiFC fusion) (domain or fragment, UniProt O23277 1-388)
chain: MFFQHSQLQNSDHLLHESMADSNHQSLSPPCANGHRSTISLRDDQGGTFCLICFSNLVSDPRIPTVHVSYALHQLSIAISEPIFLRTLLSSHIHFLVSPLVHALSSIDDAPIAIQIMDMISLLCSVEESSIGEDFVERISDQLSSGALGWSRRQLHMLHCFGVLMSCENININSHIRDKEALVCQLVEGLQLPSEEIRGEILFALYKFSALQFTEQNVDGIEVLSLLCPKLLCLSLEALAKTQRDDVRLNCVALLTILAQQGLLANSHSNSASSMSLDEVDDDPMQTAENVAARPCLNVLFAEAIKGPLLSTDSEVQIKTLDLIFHYISQESTPSKQIQVMVEENVADYIFEILRLSECKDQVVNSCLRVLDLFSLAEHSFRKRLVIG
binds: [1] | [2] | [3] | [4]

B2: truncated AtPRD1 (1-821 aa) (domain or fragment, UniProt O23277 1-821)
chain: MFFQHSQLQNSDHLLHESMADSNHQSLSPPCANGHRSTISLRDDQGGTFCLICFSNLVSDPRIPTVHVSYALHQLSIAISEPIFLRTLLSSHIHFLVSPLVHALSSIDDAPIAIQIMDMISLLCSVEESSIGEDFVERISDQLSSGALGWSRRQLHMLHCFGVLMSCENININSHIRDKEALVCQLVEGLQLPSEEIRGEILFALYKFSALQFTEQNVDGIEVLSLLCPKLLCLSLEALAKTQRDDVRLNCVALLTILAQQGLLANSHSNSASSMSLDEVDDDPMQTAENVAARPCLNVLFAEAIKGPLLSTDSEVQIKTLDLIFHYISQESTPSKQIQVMVEENVADYIFEILRLSECKDQVVNSCLRVLDLFSLAEHSFRKRLVIGFPSVIRVLHYVGEVPCHPFQIQTLKLISSCISDFPGIASSSQVQEIALVLKKMLERYYSQEMGLFPDAFAIICSVFVSLMKTPSFGETADVLTSLQESLRHSILASLSLPEKDSTQILHAVYLLNEVYVYCTASTSINKTICIELRHCVIDVCTSHLLPWFLSDVNEVNEEATLGIMETFHSILLQNSDIQAKEFAELLVSADWFSFSFGCLGNFCTDNMKQRIYLMLSSLVDILLEQKTGSHIRDALHCLPSDPQDLLFLLGQASSNNQELASCQSAALLIFHTSSIYNDRLADDKLVLASLEQYIILNKTSLICAISDSPALLNLVNLYGLCRSLQNERYQISYSLEAERIIFHLLNEYEWDLGSINIHLESLKWLFQQESISKSLIYQIQKISRNNLIGNEVHNVYGDGRQRSLTYWFAKLISEGDNYAA
binds: [5] | [6] | [7] | [8] | [9]

— PMC5577129
